Assay results as given in the supplement of paper PMC10037445.
Over roughly 2,900 compounds, “NF-kB SEAP reporter activity, fold change vs agonist alone” has its median near 0.99; the highest 2% begin near 2.6. This is one part of the list.

Assays:
RAW-Dual [1] = test: NF-kB SEAP reporter activity, fold change vs agonist alone; cytotoxicity flag (confluency mask): not cytotoxic; higher = enhanced NF-kB activity
Outline: (§1)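 Supernatant from RAW-Dual macrophages was read after 20 hours for IRF by QuantiLuc luminescence and for NF-κB by QuantiBlue absorbance at 620 nm. The cells (50,000 cells/well in DMEM, 384-well plates, 37 °C, 5% CO2) had received 50 nL of library stock by pin tool and, 1 h later, a PRR agonist. Reporter activity is expressed relative to agonist-alone wells as fold change, and wells were flagged cytotoxic if IncuCyte confluency was under 70% of agonist controls in both mask sets.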

RAW-Dual [2] = test: NF-kB SEAP reporter activity, fold change vs agonist alone; higher = enhanced NF-kB activity
Outline: as §1

RAW-Dual [3] = test: NF-kB SEAP reporter activity, fold change vs agonist alone; cytotoxicity flag (confluency mask): cytotoxic (confluency <70% of control); higher = enhanced NF-kB activity
Outline: as §1

[4] = agonist: ODN 1826 (TLR9) 0.5 ug/mL
[5] = agonist: Pam2CSK4 (TLR2/6) 0.1 ug/mL
[6] = agonist: Pam3CSK4 (TLR2/1) 0.1 ug/mL
[7] = library stock concentration (final ~1000-fold dilution): 10 mM, cytotoxicity flag (confluency mask): not cytotoxic, agonist: Imiquimod (TLR7) […]
[8] = library stock concentration (final ~1000-fold dilution): 10 mM, cytotoxicity flag (confluency mask): not cytotoxic, agonist: MPLA (TLR4) […]
[9] = library stock concentration (final ~1000-fold dilution): 10 mM, cytotoxicity flag (confluency mask): cytotoxic (confluency <70% of control), agonist: Imiquimod (TLR7) […]
[10] = library stock concentration (final ~1000-fold dilution): 10 mM, cytotoxicity flag (confluency mask): cytotoxic (confluency <70% of control), agonist: MPLA (TLR4) […]

## Oc1cccc(-c2nc(N3CCOCC3)c3oc4ncccc4c3n2)c1 (library stock concentration (final ~1000-fold dilution): 10 mM)
RAW-Dual [1]; agonist: LPS (TLR4) 0.1 ug/mL
  NF-kB SEAP reporter activity: 4.71
RAW-Dual [1]; [4]
  NF-kB SEAP reporter activity: 0.369
RAW-Dual [1]; [5]
  NF-kB SEAP reporter activity: 0.849
RAW-Dual [1]; [6]
  NF-kB SEAP reporter activity: 1.34

## Oc1cccc(-c2nc(N3CCOCC3)c3oc4ncccc4c3n2)c1
RAW-Dual [2]; [7]
  NF-kB SEAP reporter activity: 2.46
RAW-Dual [2]; [8]
  NF-kB SEAP reporter activity: 2.44

## CC(Cc1cc2c(c(C(N)=O)c1)N(CCCO)CC2)NCCOc1ccccc1OCC(F)(F)F (configuration not stated)
RAW-Dual [2]; [7]
  NF-kB SEAP reporter activity: 0.856
RAW-Dual [2]; [8]
  NF-kB SEAP reporter activity: 1.03

## CC(Cc1cc2c(c(C(N)=O)c1)N(CCCO)CC2)NCCOc1ccccc1OCC(F)(F)F (configuration not stated) (library stock concentration (final ~1000-fold dilution): 10 mM)
RAW-Dual [1]; agonist: LPS (TLR4) 0.1 ug/mL
  NF-kB SEAP reporter activity: 1.23
RAW-Dual [1]; [4]
  NF-kB SEAP reporter activity: 0.852
RAW-Dual [1]; [5]
  NF-kB SEAP reporter activity: 1.02
RAW-Dual [1]; [6]
  NF-kB SEAP reporter activity: 1.15

## Cc1ccc(O)c(C(CCN(C(C)C)C(C)C)c2ccccc2)c1.O=C(O)C(O)C(O)C(=O)O (configuration not stated)
RAW-Dual [2]; [7]
  NF-kB SEAP reporter activity: 1.12
RAW-Dual [2]; [8]
  NF-kB SEAP reporter activity: 1.05

## Cc1ccc(O)c(C(CCN(C(C)C)C(C)C)c2ccccc2)c1.O=C(O)C(O)C(O)C(=O)O (configuration not stated) (library stock concentration (final ~1000-fold dilution): 10 mM)
RAW-Dual [1]; agonist: LPS (TLR4) 0.1 ug/mL
  NF-kB SEAP reporter activity: 1.35
RAW-Dual [1]; [4]
  NF-kB SEAP reporter activity: 0.656
RAW-Dual [1]; [5]
  NF-kB SEAP reporter activity: 0.924
RAW-Dual [1]; [6]
  NF-kB SEAP reporter activity: 0.999

## O=c1cc(-c2ccccc2)oc2c1ccc1ccccc12 (library stock concentration (final ~1000-fold dilution): 10 mM)
RAW-Dual [1]; agonist: LPS (TLR4) 0.1 ug/mL
  NF-kB SEAP reporter activity: 0.691
RAW-Dual [1]; [4]
  NF-kB SEAP reporter activity: 0.933
RAW-Dual [1]; [5]
  NF-kB SEAP reporter activity: 0.846
RAW-Dual [1]; [6]
  NF-kB SEAP reporter activity: 0.982

## O=c1cc(-c2ccccc2)oc2c1ccc1ccccc12
RAW-Dual [2]; [8]
  NF-kB SEAP reporter activity: 1.2

## CCN(CC)CCCCNc1ncc2cc(-c3cc(OC)cc(OC)c3)c(NC(=O)NC(C)(C)C)nc2n1
RAW-Dual [2]; [9]
  NF-kB SEAP reporter activity: 2.8
RAW-Dual [2]; [10]
  NF-kB SEAP reporter activity: 2.71

## CCN(CC)CCCCNc1ncc2cc(-c3cc(OC)cc(OC)c3)c(NC(=O)NC(C)(C)C)nc2n1 (library stock concentration (final ~1000-fold dilution): 10 mM)
RAW-Dual [3]; agonist: LPS (TLR4) 0.1 ug/mL
  NF-kB SEAP reporter activity: 0.324
RAW-Dual [3]; [4]
  NF-kB SEAP reporter activity: 0.891
RAW-Dual [3]; [5]
  NF-kB SEAP reporter activity: 1.72
RAW-Dual [3]; [6]
  NF-kB SEAP reporter activity: 1.56

## CC(C)(F)CC(NC(c1ccc(-c2ccc(S(C)(=O)=O)cc2)cc1)C(F)(F)F)C(=O)NC1(C#N)CC1 (configuration not stated) (library stock concentration (final ~1000-fold dilution): 10 mM)
RAW-Dual [1]; agonist: LPS (TLR4) 0.1 ug/mL
  NF-kB SEAP reporter activity: 0.968
RAW-Dual [1]; [4]
  NF-kB SEAP reporter activity: 1.15
RAW-Dual [1]; [5]
  NF-kB SEAP reporter activity: 0.937
RAW-Dual [1]; [6]
  NF-kB SEAP reporter activity: 0.97

## CC(C)(F)CC(NC(c1ccc(-c2ccc(S(C)(=O)=O)cc2)cc1)C(F)(F)F)C(=O)NC1(C#N)CC1 (configuration not stated)
RAW-Dual [2]; [7]
  NF-kB SEAP reporter activity: 0.932
RAW-Dual [2]; [8]
  NF-kB SEAP reporter activity: 1.02

## C=CS(=O)(=O)NC1CCN(C(=O)CNc2cc(I)c(Cl)cc2OC)CC1 (library stock concentration (final ~1000-fold dilution): 10 mM)
RAW-Dual [1]; agonist: LPS (TLR4) 0.1 ug/mL
  NF-kB SEAP reporter activity: 0.173
RAW-Dual [1]; [4]
  NF-kB SEAP reporter activity: 0.35
RAW-Dual [1]; [5]
  NF-kB SEAP reporter activity: 0.331
RAW-Dual [1]; [6]
  NF-kB SEAP reporter activity: 0.142

## C=CS(=O)(=O)NC1CCN(C(=O)CNc2cc(I)c(Cl)cc2OC)CC1
RAW-Dual [2]; [7]
  NF-kB SEAP reporter activity: 0.764
RAW-Dual [2]; [8]
  NF-kB SEAP reporter activity: 0.205

## Cc1ccc(Oc2ccnc3cc(-c4cnn(C5CCNCC5)c4)ccc23)cc1
RAW-Dual [2]; [9]
  NF-kB SEAP reporter activity: 0.526
RAW-Dual [2]; [10]
  NF-kB SEAP reporter activity: 0.922

## Cc1ccc(Oc2ccnc3cc(-c4cnn(C5CCNCC5)c4)ccc23)cc1 (library stock concentration (final ~1000-fold dilution): 10 mM)
RAW-Dual [3]; agonist: LPS (TLR4) 0.1 ug/mL
  NF-kB SEAP reporter activity: 0.433
RAW-Dual [3]; [4]
  NF-kB SEAP reporter activity: 0.213
RAW-Dual [3]; [5]
  NF-kB SEAP reporter activity: 0.181
RAW-Dual [3]; [6]
  NF-kB SEAP reporter activity: 0.175

## COc1cc([C@H]2OC[C@H]3[C@@H]2CO[C@H]3c2ccc(OC)c(OC)c2)ccc1O (library stock concentration (final ~1000-fold dilution): 10 mM)
RAW-Dual [1]; agonist: LPS (TLR4) 0.1 ug/mL
  NF-kB SEAP reporter activity: 1.01
RAW-Dual [1]; [4]
  NF-kB SEAP reporter activity: 1
RAW-Dual [1]; [5]
  NF-kB SEAP reporter activity: 0.992
RAW-Dual [1]; [6]
  NF-kB SEAP reporter activity: 1.15

## COc1cc([C@H]2OC[C@H]3[C@@H]2CO[C@H]3c2ccc(OC)c(OC)c2)ccc1O
RAW-Dual [2]; [7]
  NF-kB SEAP reporter activity: 0.719
RAW-Dual [2]; [8]
  NF-kB SEAP reporter activity: 0.983

## O=C(CCCS)NC1CCN(C(=O)COc2ccc(Cl)cc2Cl)CC1 (library stock concentration (final ~1000-fold dilution): 10 mM)
RAW-Dual [1]; agonist: LPS (TLR4) 0.1 ug/mL
  NF-kB SEAP reporter activity: 1.87
RAW-Dual [1]; [4]
  NF-kB SEAP reporter activity: 1.1
RAW-Dual [1]; [5]
  NF-kB SEAP reporter activity: 0.978
RAW-Dual [1]; [6]
  NF-kB SEAP reporter activity: 1.35

## O=C(CCCS)NC1CCN(C(=O)COc2ccc(Cl)cc2Cl)CC1
RAW-Dual [2]; [7]
  NF-kB SEAP reporter activity: 0.922
RAW-Dual [2]; [8]
  NF-kB SEAP reporter activity: 1.09

## CCOC(=O)C(CCc1ccccc1)NC(C)C(=O)N1C(C(=O)O)CC2CCCCC21 (configuration not stated)
RAW-Dual [2]; [7]
  NF-kB SEAP reporter activity: 0.911
RAW-Dual [2]; [8]
  NF-kB SEAP reporter activity: 1.04

## CCOC(=O)C(CCc1ccccc1)NC(C)C(=O)N1C(C(=O)O)CC2CCCCC21 (configuration not stated) (library stock concentration (final ~1000-fold dilution): 10 mM)
RAW-Dual [1]; agonist: LPS (TLR4) 0.1 ug/mL
  NF-kB SEAP reporter activity: 1.25
RAW-Dual [1]; [4]
  NF-kB SEAP reporter activity: 1
RAW-Dual [1]; [5]
  NF-kB SEAP reporter activity: 1.01
RAW-Dual [1]; [6]
  NF-kB SEAP reporter activity: 0.933

## CC(C)CC(CC(=O)NO)C(=O)NC(Cc1ccc2ccccc2c1)C(=O)NC(C)C(=O)NCCN (configuration not stated)
RAW-Dual [2]; [7]
  NF-kB SEAP reporter activity: 1.09
RAW-Dual [2]; [8]
  NF-kB SEAP reporter activity: 1.34

## CC(C)CC(CC(=O)NO)C(=O)NC(Cc1ccc2ccccc2c1)C(=O)NC(C)C(=O)NCCN (configuration not stated) (library stock concentration (final ~1000-fold dilution): 10 mM)
RAW-Dual [1]; agonist: LPS (TLR4) 0.1 ug/mL
  NF-kB SEAP reporter activity: 1.55
RAW-Dual [1]; [4]
  NF-kB SEAP reporter activity: 1.11
RAW-Dual [1]; [5]
  NF-kB SEAP reporter activity: 1.02
RAW-Dual [1]; [6]
  NF-kB SEAP reporter activity: 1.1

## O=P(O)(O)OC(CO)CO
RAW-Dual [2]; library stock concentration (final ~1000-fold dilution): 10 mM water, cytotoxicity flag (confluency mask): not cytotoxic, agonist: Imiquimod (TLR7) […]
  NF-kB SEAP reporter activity: 0.936
RAW-Dual [2]; library stock concentration (final ~1000-fold dilution): 10 mM water, cytotoxicity flag (confluency mask): not cytotoxic, agonist: MPLA (TLR4) […]
  NF-kB SEAP reporter activity: 1.02

## O=P(O)(O)OC(CO)CO (library stock concentration (final ~1000-fold dilution): 10 mM water)
RAW-Dual [1]; agonist: LPS (TLR4) 0.1 ug/mL
  NF-kB SEAP reporter activity: 1.11
RAW-Dual [1]; [4]
  NF-kB SEAP reporter activity: 1.12
RAW-Dual [1]; [5]
  NF-kB SEAP reporter activity: 1.2
RAW-Dual [1]; [6]
  NF-kB SEAP reporter activity: 1.13
